Where “and” joins values, the source holds several entries; their conditions need not be identical. Identical values can stand only once. Inconclusive means that the source gave no clear call. Such entries were picked first, then a sample of the others. For some assays here: A potency beside an inconclusive call is a rough fit, not a confirmed value. More than one record can exist for a structure, and the calls need not agree. Calls of active or inactive are those of the source. Unless noted, the call rests on the fitted dose curve.
Tests used:
[1] = qHTS assay for small molecule agonists of the p53 signaling pathway - cell viability (AID 651633); further: nearly all actives have a fitted effect of over 30% in size
Method in brief: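 p53RE-bla cells, seeded at 4,000 per well and rested 5 h at 37 C/5% CO2, received compounds in DMSO for 16 h at 37 C. CellTiter-Glo was then added, and luminescence was read after 30 min at room temperature to gauge cytotoxicity.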

[2] = qHTS assay for small molecule disruptors of the mitochondrial membrane potential (AID 720635; active means well fitted curve in the direction sought with a large enough effect in the repeat runs; inconclusive means weak or mixed curves; inactive means no such curve, though single readings can be large; an effect the other way counts as inactive or inconclusive; on ratio activity, negative = MMP loss: on the % scale 0 is the no-effect control and ±100 the full control effect); settings: HepG2 mitochondrial membrane potential, Mito-MPS dye ratio; ratio activity, negative = MMP loss: at 83.2 µM (top of the series) unless noted
Method in brief: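 HepG2 cells (2,000/well) attached overnight at 37C, then took compound for 1 hr at 37C, 5% CO2. Mito-MPS dye was added for 30 min; fluorescence was read at 490/535 nm (monomers) and 540/590 nm (aggregates).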

[3] = qHTS assay for small molecule disruptors of the mitochondrial membrane potential - cell viability (AID 720634); further: nearly all actives have a fitted effect of over 20% in size
Method in brief: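 Cytotoxicity was quantified from ATP content by CellTiter-Glo luminescence in the same wells as the MMP dye read-out. HepG2 (2,000 cells/well) were plated overnight and exposed to compounds for 1 hr at 37 C.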

[4] = qHTS assay for small molecules that induce genotoxicity in human embryonic kidney cells expressing luciferase-tagged ATAD5 - cell viability (AID 651634); further: nearly all actives have a fitted effect of over 25% in size
Method in brief: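 Cytotoxicity counter-readout: after 15.5 hr compound treatment at 37C, live-cell protease activity in ATAD5-luciferase HEK293T cells measured by CellTiter-Fluor fluorescence, 30 min development at 37C.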

[5] = qHTS assay to test for compound auto fluorescence at 460 nm (blue) in HEK293 cell free culture (AID 720681; active means well fitted curve in the direction sought with a large enough effect in the repeat runs; inconclusive means weak or mixed curves; inactive means no such curve, though single readings can be large; an effect the other way counts as inactive or inconclusive)
Method in brief: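 Test compounds were pinned into cell-free culture medium (DMEM with 10% FBS) and fluorescence was read directly at Ex/Em 405/460 nm. Signals were expressed as fluorescence equivalents of triamterene, with DMSO vehicle as control.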

[6] = target: Glucocorticoid receptor (Homo sapiens) (UniProt P04150); experiment: qHTS assay to identify small molecule antagonists of the glucocorticoid receptor (GR) signaling pathway (AID 720692; active means well fitted inhibition curve with a large enough effect in the signal ratio in the repeat runs, not every such curve was filed as active; inconclusive means weak or mixed curves, or effect the other way; inactive means no such curve, though single readings can be large or run the other way; the % refers to the signal ratio; on activity change, negative = inhibition: on the % scale 0 is the no-effect control and ±100 the full control effect); settings: GR-bla HeLa, beta-lactamase FRET ratio, dexamethasone-stimulated, 18 h; activity change, negative = inhibition: at 58.5 µM (top of the series) unless noted
UniProt P04150, sequence (P04150 whole entry, looked up): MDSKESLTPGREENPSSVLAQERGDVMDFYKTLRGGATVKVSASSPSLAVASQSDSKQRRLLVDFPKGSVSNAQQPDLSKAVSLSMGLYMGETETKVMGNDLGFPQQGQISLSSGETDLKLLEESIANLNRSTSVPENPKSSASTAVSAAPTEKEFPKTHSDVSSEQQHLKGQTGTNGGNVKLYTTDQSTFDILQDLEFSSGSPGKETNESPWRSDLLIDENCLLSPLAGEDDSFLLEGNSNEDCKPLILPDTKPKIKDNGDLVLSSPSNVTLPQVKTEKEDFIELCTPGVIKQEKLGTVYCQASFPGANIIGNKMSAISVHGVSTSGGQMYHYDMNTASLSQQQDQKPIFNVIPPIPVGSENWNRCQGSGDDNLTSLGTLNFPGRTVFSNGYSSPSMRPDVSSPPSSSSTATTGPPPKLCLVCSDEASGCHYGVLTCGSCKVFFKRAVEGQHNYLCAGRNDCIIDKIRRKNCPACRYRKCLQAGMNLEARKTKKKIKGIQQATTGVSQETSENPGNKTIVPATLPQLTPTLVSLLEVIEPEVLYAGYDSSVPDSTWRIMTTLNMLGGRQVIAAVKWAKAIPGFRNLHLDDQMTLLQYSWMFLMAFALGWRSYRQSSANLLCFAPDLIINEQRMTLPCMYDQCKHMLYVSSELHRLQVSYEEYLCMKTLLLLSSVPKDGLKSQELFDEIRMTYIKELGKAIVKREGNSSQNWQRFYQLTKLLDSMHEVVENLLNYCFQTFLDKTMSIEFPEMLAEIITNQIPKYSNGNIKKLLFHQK
Method in brief: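 Inhibition of dexamethasone-driven (5 nM final) beta-lactamase expression was measured in GRE-reporter HeLa cells over 18 h at 37C. Fluorescence was read after 2 h with the B/G FRET substrate at room temperature.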

[7] = target: Glucocorticoid receptor (Homo sapiens) (UniProt P04150); experiment: qHTS assay to identify small molecule agonists of the glucocorticoid receptor (GR) signaling pathway (AID 720691; active means well fitted activation curve with a large enough effect in the signal ratio in the repeat runs, not every such curve was filed as active; inconclusive means weak or mixed curves, or effect the other way; inactive means no such curve, though single readings can be large or run the other way; the % refers to the signal ratio; on activation: on the % scale 0 is the no-effect control and ±100 the full control effect); settings: GR-bla HeLa, beta-lactamase reporter ratio, 18 h; activation: at 62.4 µM (top of the series) unless noted
Method in brief: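 Agonist-mode qHTS in HeLa cells stably expressing a glucocorticoid-response-element beta-lactamase reporter. Fluorescence intensity read with FRET substrate (2 h, room temperature) after 18 h compound treatment at 37 C.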

[8] = qHTS assay to test for compound auto fluorescence at 590 nm (red) in HepG2 cells (AID 720674; active means well fitted curve in the direction sought with a large enough effect in the repeat runs; inconclusive means weak or mixed curves; inactive means no such curve, though single readings can be large; an effect the other way counts as inactive or inconclusive)
Method in brief: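 Compound auto-fluorescence is scored relative to Rose Bengal sodium, measured at 540/590 nm in live HepG2 cultures after 1 hr compound contact (37 C, 5% CO2).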
Potency means the concentration at half of the fitted maximal effect; tags describe the fitted curve by direction and shape or compound fluorescence and quenching.

CCCCCCCCCCCO
Potency [1]: active: 61.1 µM | Potency [2]: inactive and active: 21.7 µM

Cc1cc(N)c2cc(NC(=O)Nc3ccc4nc(C)cc(N)c4c3)ccc2n1
Potency [1]: inconclusive: 26.6 µM [cytotoxic, partial curve] | Potency [2]: active: 22.1 µM

CCOC(=O)C(C#N)=C(c1ccccc1)c1ccccc1
Potency [3]: inconclusive: 23.7 µM [cytotoxic, partial curve, poor fit] and inconclusive: 54.5 µM [cytotoxic, partial curve] | Potency [2]: inconclusive: 10.6 µM [activator, partial curve] and inconclusive: 48.6 µM [cytotoxic, partial curve, poor fit]

O=[N+]([O-])c1cccc(S(=O)(=O)NCCNS(=O)(=O)c2cccc([N+](=O)[O-])c2)c1
Potency [3]: inconclusive: 26.6 µM [cytotoxic]

NC(=O)N1c2ccccc2C=Cc2ccccc21
Potency [3]: inactive

O=S(=O)(c1cccc2cnccc12)N1CCCNCC1
Potency [3]: inactive | ratio activity, negative = MMP loss [2]: inconclusive: 35.3%

CCCCCCCCCC/C=C/C#N
Potency [4]: inactive | Potency [2]: inactive | Potency [5]: inconclusive: 11.2 µM [rising, partial curve, poor fit]

O=P(O)(O)C(O)(Cc1cccnc1)P(=O)(O)O
Potency [4]: inactive | Potency [2]: inactive | activity change, negative = inhibition [6]: inconclusive: -6.95%

CC(C)=CCC/C(C)=C/COC=O
Potency [3]: inactive

COC(=O)C1=C(C)NC(C)=C(C(=O)OCCN(C)Cc2ccccc2)C1c1cccc([N+](=O)[O-])c1 (stereo not drawn)
Potency [3]: inconclusive: 8.41 µM [cytotoxic, partial curve, poor fit] and inconclusive: 60.8 µM [cytotoxic, partial curve] | Potency [2]: active: 18.8 µM | Potency [7]: inconclusive: 10.7 µM [inhibitor, partial curve, poor fit] and inconclusive: 5.46 µM [inhibitor, partial curve, poor fit] | Potency [6]: active: 23.9 µM and active: 43.4 µM

O=[N+]([O-])c1ccc(O)cc1
Potency [3]: inconclusive: 63.5 µM [cytotoxic]

NC(=O)c1ccncc1
Potency [3]: inactive

Nc1nc(=S)c2[nH]cnc2[nH]1
Potency [4]: inconclusive: 3.76 µM [falling, partial curve, poor fit] and inconclusive: 21.7 µM [falling, partial curve, poor fit] | Potency [6]: active: 23.9 µM and active: 30.1 µM and active: 43.6 µM

CCN(CC)c1ccc2c(-c3ccc(S(=O)(=O)O)cc3S(=O)(=O)[O-])c3ccc(=[N+](CC)CC)cc-3oc2c1
Potency [3]: active: 70.7 µM | Potency [2]: inconclusive: 3.16 µM [activator, full curve] | Potency [8]: active: 0.398 µM | Potency [6]: inactive

CCCCC/C(=C\c1ccccc1)CO
Potency [3]: inconclusive: 53.8 µM [cytotoxic, partial curve] | Potency [2]: active: 30.3 µM

C=CCOCC(CC)(CO)COCC=C
Potency [3]: inactive | Potency [2]: inactive | Potency [6]: inconclusive: 54.9 µM [activator, single point]

C1CCN(CN2CCCCC2)CC1
Potency [4]: inactive | Potency [2]: inactive | Potency [6]: inconclusive: 21.9 µM [cytotoxic, single point]

O=[N+]([O-])c1ccc2nc[nH]c2c1
Potency [3]: inactive | Potency [2]: inconclusive: 24.8 µM [inhibitor, partial curve]

C1CCC(SSC2CCCCC2)CC1
Potency [3]: inactive | ratio activity, negative = MMP loss [2]: inconclusive: -21.8% | Potency [7]: inactive | Potency [6]: inactive

O=C(c1ccc(O)c(O)c1)c1ccc(O)cc1O
Potency [4]: inconclusive: 15.3 µM [falling, partial curve, poor fit] | Potency [5]: active: 35.5 µM | Potency [6]: inconclusive: 5.49 µM [activator, single point]

CCCCCCCCOc1ccc(C(=O)c2ccccc2)c(O)c1
Potency [3]: inconclusive: 61.7 µM [cytotoxic] | Potency [2]: inactive and inconclusive: 55 µM [inhibitor, single point] and active: 61.1 µM

C#C[C@]1(O)CC[C@H]2[C@@H]3CCc4cc(OC)ccc4[C@H]3CC[C@@]21C
Potency [3]: inconclusive: 30.6 µM [cytotoxic, partial curve] | Potency [2]: active: 19.3 µM | ratio activity, negative = MMP loss [2]: inconclusive: -23.2% | Potency [6]: inconclusive: 5.49 µM [inhibitor, full curve] | activity change, negative = inhibition [6]: inconclusive: -36.8%

— PubChem BioAssay (Tox21)
